# Some of the results follow. Single values are uncertain, as repeats are few or missing.
# Legend:
# Experiment in all cases: cell count relative to DMSO control; melanoma cells; higher = more viable cells
# Settings in all cases: library dose: low library concentration; 72 h
# WM115 = test system: WM115
# WM1716 = test system: WM1716
# WM1745 = test system: WM1745
# WM3526 = test system: WM3526
# WM3619 = test system: WM3619
# WM451Lu = test system: WM451Lu
# 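Further: cell number obtained by counting DAPI-stained nuclei in high-throughput microscope images with image analysis software, screen run in 1,536-well plates.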
compound,measurement,setting,value
"CN1CCN(c2ccc3nc(-c4c(N)c5c(F)cccc5[nH]c4=O)[nH]c3c2)CC1 [Dovitinib] + Cc1cc(SCc2sc(-c3ccc(C(F)(F)F)c(F)c3)nc2C)ccc1OCC(=O)O [GW0742] (first compound 0.1 µM, partner dose 2 µM)",cell count,WM115,98.1%
same,cell count,WM1716,117%
same,cell count,WM1745,87.7%
same,cell count,WM3526,102%
same,cell count,WM3619,80.2%
same,cell count,WM451Lu,94.9%
"O=C(O)C(=O)Nc1sc2c(c1C(=O)O)CCNC2 + O=C(Oc1ccc([N+](=O)[O-])cc1)N1CCC(C(O)(c2ccc3c(c2)OCO3)c2ccc3c(c2)OCO3)CC1 [JZL184] (first compound 1.66667 µM, partner dose 1 µM)",cell count,WM115,89.8%
same,cell count,WM1716,107%
same,cell count,WM1745,74.1%
same,cell count,WM3526,93.4%
same,cell count,WM3619,116%
same,cell count,WM451Lu,95.7%
"O=C(CCCCCCC(=O)Nc1ccccc1)NO [vorinostat] + Cc1cc(SCc2sc(-c3ccc(C(F)(F)F)c(F)c3)nc2C)ccc1OCC(=O)O [GW0742] (first compound 0.08 µM, partner dose 2 µM)",cell count,WM115,97.2%
same,cell count,WM1716,100%
same,cell count,WM1745,96.8%
same,cell count,WM3526,130%
same,cell count,WM3619,95.9%
same,cell count,WM451Lu,114%
"Cc1nc(Nc2ncc(C(=O)Nc3c(C)cccc3Cl)s2)cc(N2CCN(CCO)CC2)n1 [dasatanib] + Cc1cc(SCc2sc(-c3ccc(C(F)(F)F)c(F)c3)nc2C)ccc1OCC(=O)O [GW0742] (first compound 0.004 µM, partner dose 2 µM)",cell count,WM115,65%
same,cell count,WM1716,60.6%
same,cell count,WM1745,60.5%
same,cell count,WM3526,102%
same,cell count,WM3619,88.4%
same,cell count,WM451Lu,61.3%
"Oc1cc(-c2nc(-c3ccccc3)[nH]c2-c2ccncc2)ccc1Cl + O=C(Oc1ccc([N+](=O)[O-])cc1)N1CCC(C(O)(c2ccc3c(c2)OCO3)c2ccc3c(c2)OCO3)CC1 [JZL184] (first compound 0.2 µM, partner dose 1 µM)",cell count,WM115,75%
same,cell count,WM1716,94.2%
same,cell count,WM1745,89.4%
same,cell count,WM3526,71.5%
same,cell count,WM3619,116%
same,cell count,WM451Lu,123%
"Cc1cc(Nc2cc(N3CCN(C)CC3)nc(Sc3ccc(NC(=O)C4CC4)cc3)n2)n[nH]1 [Tozasertib] + Cn1cc(C2=C(c3cn(C4CCN(Cc5ccccn5)CC4)c4ccccc34)C(=O)NC2=O)c2ccccc21 [Enzastaurin] (first compound 0.006 µM, partner dose 0.8 µM)",cell count,WM115,84.9%
same,cell count,WM1716,118%
same,cell count,WM1745,79.1%
same,cell count,WM3526,100%
same,cell count,WM3619,85.9%
same,cell count,WM451Lu,96.6%
"CN1CCN(c2ccc3nc(-c4c(N)c5c(F)cccc5[nH]c4=O)[nH]c3c2)CC1 [Dovitinib] + C[As](C)SC[C@H](NC(=O)CC[C@H](N)C(=O)O)C(=O)NCC(=O)O [Darinaparsin] (first compound 0.1 µM, partner dose 0.4 µM)",cell count,WM115,88.7%
same,cell count,WM1716,114%
same,cell count,WM1745,93.1%
same,cell count,WM3526,85.7%
same,cell count,WM3619,96.1%
same,cell count,WM451Lu,99.5%
"Clc1ccc(Nc2nnc(Cc3ccncc3)c3ccccc23)cc1 [vatalanib] + C[As](C)SC[C@H](NC(=O)CC[C@H](N)C(=O)O)C(=O)NCC(=O)O [Darinaparsin] (first compound 2 µM, partner dose 0.4 µM)",cell count,WM115,97.3%
same,cell count,WM1716,97.3%
same,cell count,WM1745,88.5%
same,cell count,WM3526,83%
same,cell count,WM3619,69.6%
same,cell count,WM451Lu,82.2%
"C#Cc1cccc(Nc2ncnc3cc(OCCOC)c(OCCOC)cc23)c1 [erlotinib] + C[As](C)SC[C@H](NC(=O)CC[C@H](N)C(=O)O)C(=O)NCC(=O)O [Darinaparsin] (first compound 0.8 µM, partner dose 0.4 µM)",cell count,WM115,90.7%
same,cell count,WM1716,95.1%
same,cell count,WM1745,84.9%
same,cell count,WM3526,91.9%
same,cell count,WM3619,89.3%
same,cell count,WM451Lu,95.4%
"COc1ccc(COc2ccc(Cc3cnc(N)nc3N)cc2OC)cc1 + C/C(O)=C(\C#N)C(=O)Nc1cc(Br)ccc1Br [LFM-A13] (first compound 1 µM, partner dose 2 µM)",cell count,WM115,101%
same,cell count,WM1716,88%
same,cell count,WM1745,87.8%
same,cell count,WM3526,85.6%
same,cell count,WM3619,112%
same,cell count,WM451Lu,80.4%
"COCC[n+]1c2c(n(Cc3cnccn3)c1C)C(=O)c1ccccc1C2=O + Cc1cc(SCc2sc(-c3ccc(C(F)(F)F)c(F)c3)nc2C)ccc1OCC(=O)O [GW0742] (first compound 0.0004 µM, partner dose 2 µM)",cell count,WM115,104%
same,cell count,WM1716,94.8%
same,cell count,WM1745,111%
same,cell count,WM3526,98.9%
same,cell count,WM3619,116%
same,cell count,WM451Lu,62.8%
"COc1ccc(COc2ccc(Cc3cnc(N)nc3N)cc2OC)cc1 + O=C(Oc1ccc([N+](=O)[O-])cc1)N1CCC(C(O)(c2ccc3c(c2)OCO3)c2ccc3c(c2)OCO3)CC1 [JZL184] (first compound 1 µM, partner dose 1 µM)",cell count,WM115,111%
same,cell count,WM1716,92.8%
same,cell count,WM1745,104%
same,cell count,WM3526,92.8%
same,cell count,WM3619,126%
same,cell count,WM451Lu,97.5%
"Clc1ccc(Nc2nnc(Cc3ccncc3)c3ccccc23)cc1 [vatalanib] + O=C(Oc1ccc([N+](=O)[O-])cc1)N1CCC(C(O)(c2ccc3c(c2)OCO3)c2ccc3c(c2)OCO3)CC1 [JZL184] (first compound 2 µM, partner dose 1 µM)",cell count,WM115,90.9%
same,cell count,WM1716,91.3%
same,cell count,WM1745,91.8%
same,cell count,WM3526,98.4%
same,cell count,WM3619,75.8%
same,cell count,WM451Lu,104%
"C[C@@H]1CCN(C(=O)CC#N)C[C@@H]1N(C)c1ncnc2[nH]ccc12 + C/C(O)=C(\C#N)C(=O)Nc1cc(Br)ccc1Br [LFM-A13] (first compound 1 µM, partner dose 2 µM)",cell count,WM115,97.6%
same,cell count,WM1716,94.8%
same,cell count,WM1745,88.5%
same,cell count,WM3526,101%
same,cell count,WM3619,95.2%
same,cell count,WM451Lu,116%
"Nc1ccn([C@@H]2O[C@H](CO)[C@@H](O)C2(F)F)c(=O)n1 [gemcitabine] + C/C(O)=C(\C#N)C(=O)Nc1cc(Br)ccc1Br [LFM-A13] (first compound 0.0004 µM, partner dose 2 µM)",cell count,WM115,98%
same,cell count,WM1716,86.9%
same,cell count,WM1745,68.7%
same,cell count,WM3526,85.6%
same,cell count,WM3619,69.7%
same,cell count,WM451Lu,90.9%
"Cc1cc([N+](=O)[O-])ccc1NS(=O)(=O)c1cc(Cl)ccc1Cl + O=C(Oc1ccc([N+](=O)[O-])cc1)N1CCC(C(O)(c2ccc3c(c2)OCO3)c2ccc3c(c2)OCO3)CC1 [JZL184] (first compound 1 µM, partner dose 1 µM)",cell count,WM115,92.8%
same,cell count,WM1716,85.2%
same,cell count,WM1745,88.9%
same,cell count,WM3526,105%
same,cell count,WM3619,102%
same,cell count,WM451Lu,94.4%
"CO[C@H]1C[C@@H]2CC[C@@H](C)[C@@](O)(O2)C(=O)C(=O)N2CCCC[C@H]2C(=O)O[C@H]([C@H](C)C[C@@H]2CC[C@@H](OCCO)[C@H](OC)C2)CC(=O)[C@H](C)/C=C(\C)[C@@H](O)[C@@H](OC)C(=O)[C@H](C)C[C@H](C)/C=C/C=C/C=C/1C [everolimus] + O=C(Oc1ccc([N+](=O)[O-])cc1)N1CCC(C(O)(c2ccc3c(c2)OCO3)c2ccc3c(c2)OCO3)CC1 [JZL184] (first compound 0.02 µM, partner dose 1 µM)",cell count,WM115,79.7%
same,cell count,WM1716,79.2%
same,cell count,WM1745,82.3%
same,cell count,WM3526,49.8%
same,cell count,WM3619,61.4%
same,cell count,WM451Lu,91.2%
"O=C(CCCCCCC(=O)Nc1ccccc1)NO [vorinostat] + O=C(Oc1ccc([N+](=O)[O-])cc1)N1CCC(C(O)(c2ccc3c(c2)OCO3)c2ccc3c(c2)OCO3)CC1 [JZL184] (first compound 0.08 µM, partner dose 1 µM)",cell count,WM115,98.3%
same,cell count,WM1716,101%
same,cell count,WM1745,95.2%
same,cell count,WM3526,80.7%
same,cell count,WM3619,111%
same,cell count,WM451Lu,96.5%
"C=CCn1c(=O)c2cnc(Nc3ccc(N4CCN(C)CC4)cc3)nc2n1-c1cccc(C(C)(C)O)n1 + C/C(O)=C(\C#N)C(=O)Nc1cc(Br)ccc1Br [LFM-A13] (first compound 0.02 µM, partner dose 2 µM)",cell count,WM115,84%
same,cell count,WM1716,75%
same,cell count,WM1745,79.4%
same,cell count,WM3526,89.5%
same,cell count,WM3619,67.6%
same,cell count,WM451Lu,103%
"Cc1nc(Nc2ncc(C(=O)Nc3c(C)cccc3Cl)s2)cc(N2CCN(CCO)CC2)n1 [dasatanib] + O=C(Oc1ccc([N+](=O)[O-])cc1)N1CCC(C(O)(c2ccc3c(c2)OCO3)c2ccc3c(c2)OCO3)CC1 [JZL184] (first compound 0.004 µM, partner dose 1 µM)",cell count,WM115,75.1%
same,cell count,WM1716,75.3%
same,cell count,WM1745,61.7%
same,cell count,WM3526,78.7%
same,cell count,WM3619,86.3%
same,cell count,WM451Lu,69.4%
"COCC[n+]1c2c(n(Cc3cnccn3)c1C)C(=O)c1ccccc1C2=O + O=C(Oc1ccc([N+](=O)[O-])cc1)N1CCC(C(O)(c2ccc3c(c2)OCO3)c2ccc3c(c2)OCO3)CC1 [JZL184] (first compound 0.0004 µM, partner dose 1 µM)",cell count,WM115,86.5%
same,cell count,WM1716,83.2%
same,cell count,WM1745,92.4%
same,cell count,WM3526,88.4%
same,cell count,WM3619,105%
same,cell count,WM451Lu,80.1%
"Clc1ccc(Nc2nnc(Cc3ccncc3)c3ccccc23)cc1 [vatalanib] + C/C(O)=C(\C#N)C(=O)Nc1cc(Br)ccc1Br [LFM-A13] (first compound 2 µM, partner dose 2 µM)",cell count,WM115,92.6%
same,cell count,WM1716,88.1%
same,cell count,WM1745,91.6%
same,cell count,WM3526,113%
same,cell count,WM3619,93.7%
same,cell count,WM451Lu,113%
"CO[C@H]1C[C@@H]2CC[C@@H](C)[C@@](O)(O2)C(=O)C(=O)N2CCCC[C@H]2C(=O)O[C@H]([C@H](C)C[C@@H]2CC[C@@H](OCCO)[C@H](OC)C2)CC(=O)[C@H](C)/C=C(\C)[C@@H](O)[C@@H](OC)C(=O)[C@H](C)C[C@H](C)/C=C/C=C/C=C/1C [everolimus] + Cc1cc(SCc2sc(-c3ccc(C(F)(F)F)c(F)c3)nc2C)ccc1OCC(=O)O [GW0742] (first compound 0.02 µM, partner dose 2 µM)",cell count,WM115,89.6%
same,cell count,WM1716,107%
same,cell count,WM1745,92.3%
same,cell count,WM3526,102%
same,cell count,WM3619,113%
same,cell count,WM451Lu,99.5%
"Cc1cc(Nc2cc(N3CCN(C)CC3)nc(Sc3ccc(NC(=O)C4CC4)cc3)n2)n[nH]1 [Tozasertib] + Cc1cc(SCc2sc(-c3ccc(C(F)(F)F)c(F)c3)nc2C)ccc1OCC(=O)O [GW0742] (first compound 0.006 µM, partner dose 2 µM)",cell count,WM115,88.7%
same,cell count,WM1716,92.7%
same,cell count,WM1745,75.1%
same,cell count,WM3526,93.4%
same,cell count,WM3619,78.9%
same,cell count,WM451Lu,117%
"Cc1cc(Nc2cc(N3CCN(C)CC3)nc(Sc3ccc(NC(=O)C4CC4)cc3)n2)n[nH]1 [Tozasertib] + N.N.[Cl][Pt][Cl] [cisplatin] (first compound 0.006 µM, partner dose 1.6 µM)",cell count,WM115,85.9%
same,cell count,WM1716,80.3%
same,cell count,WM1745,99.5%
same,cell count,WM3526,82.6%
same,cell count,WM3619,99.9%
same,cell count,WM451Lu,90.9%
